Test results: patent publication US5659049A, “Antioxidant, antiphospholipase derivatives of ricinoleic acid” (Virginia Commonwealth University, priority 1995, dated 1997)

Key:
[1] = system: PLA2 activities derived from human platelets and human polymorphonuclear leucocytes (PMNs); settings: to approximately the same extent for the three acids; Ballou and Cheng, Marki and Franson; cited from earlier work
[2] = system: PLA2 activities derived from human platelets and human polymorphonuclear leucocytes (PMNs); assay: In vitro PLA2 inhibition by fatty acids
Ca++-dependent PLA2s = settings: 10 μM concentrations

Compound	Inhibition of in vitro PLA2 activity [1]	further results
CCCCC/C=C\C/C=C\C/C=C\C/C=C\CCCC(=O)O [arachidonic acid]	inhibited	–
CCCCCCCC/C=C\CCCCCCCC(=O)O [oleic acid]	inhibited	–
CCCCC[C@H](O)/C=C/C1=C(CCCCCCC(=O)O)C(=O)CC1 [PGB1, prostaglandin B1]	–	Less inhibitory of PLA2 than the precursor arachidonic acid, by ([2]; compared with arachidonic acid): at least 2 orders of magnitude; Inhibition of Ca++-dependent PLA2s (Ca++-dependent PLA2s): not inhibitory
CCCCCC[C@@H](O)C/C=C\CCCCCCCC(=O)O [ricinoleic acid, 12-hydroxy-oleic acid]	–	Inhibition of in vitro PLA2 activity ([2]; 12-hydroxylation of oleic acid, recent studies): eliminates the inhibitory activity
CCCCC/C=C\C/C=C\CCCCCCCC(=O)O [linoleic acid]	inhibited	–

Read-outs that look alike come from different tables or passages of the source.
